In a collection of fitness landscapes (doi:10.1016/j.celrep.2020.107928):
Whole data set: some 81,000 sequences, median “one-hybrid fitness for binding NBS DNA” near -0.1, cut for the highest 2% near 0.36. The list shows a part of the results.

B1: Caulobacter ParB omega fusion; a variant is named by its letters at X, in order, B8GW30 (parent)
chain: MESVVVGEPGMSEGRRGLGRGLSALLGEVDAAPAQAPGEQLGGSREAPIEILQRNPDQPRRTFREEDLEDLSNSIREKGVLQPILVRPSPDTAGEYQIVAGERAWRAAQRAGLKTVPIMVRELDDLAVLEIGIIENVQRADLNVLEEALSYKVLMEKFERTQENIAQTIGKSXSHVANXMRLLXLPDEVQSYLVSGELTAXHARAIAAAADPVALAKQIIEGGLSVRETEALARKAPNLSAGKSKGGRPPRVKDTDTQALESDLSSVLGLDVSIDHRGSTGTLTITYATLEQLDDLCNRLTRGI

Variants of: B1
Test: one-hybrid fitness for binding NBS DNA (the Noc-binding site; scaled: cognate 1, non-cognate 0); higher = stronger binding
Details: with NBS DNA site
In short: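 In E. coli USO, a HIS3 reporter with its site placed 19 bp from the promoter was used to select Caulobacter ParB variants randomised at four specificity codons. Growth lasted 48 hours at 37°C on histidine-free M9 containing 0.1 mM IPTG and 5 mM 3-AT. Fitness was taken as the log change in variant-to-wild-type read ratio from Illumina sequencing of pre- and post-selection plasmids, rescaled between the non-cognate and cognate sites.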

one-hybrid fitness for binding NBS DNA, ≤ 0.2:
DEST
CFNS
VSDL
RWLS
GAPP
RHMG
KCQT
HAYC
FKNI
YSNE
HDQC
ITKF
KACT
PQSV
QCPP
RVAW
LDEA
QKNE
LPAL
EGQS
VIAR
KTQI
RYCN
CMPI
QEHW
TIET
LVNT
SADF
NRYC
RGLA
APDA
HHQG
TKCG
KPSR
QRDE
GVSR
WPPG
FGHA
CAKK
VQTS
YDET
NCLC
RWHH
CFIR
RCFE
VEWR
TSVV
PRKK
NVCN
ATMM
MLVV
LNTD
PYPE
QHND
TWTA
HFKR
TMLL
SSLR
QLPV
DIET
LQTR
FSFS
KKKN
ETMC
WPVS
RWSC
QITG
YYIC
TLHK
IRLT
KLPL
MAMW
DDDT
RYNN
SMAT
SMHC
YALH
PTLT
IYPL
VDST
MAIW
QSYL
MCEG
TCYE
HNLK
KELQ
SKNQ
SFEM
VEVP
LGTQ
RLCH
DSPC
MAKK
RFTE
KAQT

one-hybrid fitness for binding NBS DNA, 0.393:
RTVT

one-hybrid fitness for binding NBS DNA, 0.274:
SRKT

one-hybrid fitness for binding NBS DNA, 0.381:
RQKC
